# Laboratory results as given in PubChem BioAssay AID602233 (National Center for Advancing Translational Sciences (NCATS), 2012).
# In all, about 380,000 compounds went through this assay and about 170 (0.045%) were called active. The inconclusive results got no clear call from the source; some entries with a clear call stand among them for comparison. The call rests on the fitted dose curve; in most records, active means well fitted inhibition curve with a large enough effect; inconclusive means small, poorly fitted or top-dose-only effect; inactive means no such curve, though single readings can be large or run the other way. Potencies of inconclusive entries are left out as doubtful fits.
# Target: Phosphoglycerate kinase, glycosomal (Trypanosoma brucei brucei) (UniProt P07378)
# Assay: qHTS Assay to Find Inhibitors of Phosphoglycerate Kinase; further: nearly all actives have a fitted effect of over 60% in size
# Conditions: PGK/GAPDH coupled, Kinase-Glo luminescence, 60 min; series mostly up to 57.5 µM
# Outline: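 Recombinant glycosomal PGK reaction used 1,3-bisphosphoglycerate generated in-well by GAPDH (100nM final) in 100mM TEA pH 7.6, 5mM MgCl2, 0.01% Tween-20. After 60 minutes at room temperature, ATP was read by Kinase-Glo Plus luminescence end-point.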
# Potency means the concentration at half of the fitted maximal effect; tags describe the fitted curve by direction and shape.
row,SMILES,Potency
1,COc1cccc(C(=O)O/N=C(\N)c2ccc([N+](=O)[O-])cc2)c1,"inconclusive [inhibitor, single point]"
2,CCOC(=O)C1=C(C)NC(=O)NC1c1c(C)nn(-c2ccccc2)c1Cl (stereo unspecified),"inconclusive [inhibitor, single point]"
3,Cc1nc(N/N=C/c2ccccn2)sc1C,"inconclusive [inhibitor, partial curve, poor fit]"
4,O=C1c2ccccc2C(=O)c2c1ccc(O)c2O,"inconclusive [inhibitor, partial curve]"
5,NC(=O)c1ccc(NC(=O)COC(=O)/C=C/c2ccc(Br)o2)cc1,"inconclusive [inhibitor, partial curve, poor fit]"
6,COc1ccc(NC(=O)c2ccc(NC(=O)CSc3nccc(=O)[nH]3)cc2)cc1,"inconclusive [inhibitor, partial curve, poor fit]"
7,CCN(CC)S(=O)(=O)c1ccc2c(c1)c(=O)c(C(=O)N1CCN(c3ccccc3)CC1)cn2C,"inconclusive [inhibitor, single point]"
8,CN(Cc1ccccc1)S(=O)(=O)c1ccc(NC(=S)NC(=O)C(C)(C)C)cc1,"inconclusive [inhibitor, partial curve, poor fit]"
9,CCN1CCN(C(=O)/C=C/c2ccc(F)cc2)CC1,inactive
10,Cc1ccccc1NC(=O)CN1C(=O)S/C(=C\c2ccc(-c3cc(C(=O)O)ccc3C)o2)C1=O,"inconclusive [inhibitor, single point]"
11,O=C(C=C1SCCS1)/C=C/c1ccco1,"inconclusive [inhibitor, single point]"
12,COc1ccc(N2CCN(c3nc4ccc(C)cc4n4nnnc34)CC2)cc1,inactive
13,O=C1CC(c2ccco2)CC(O)=C1C=NCC1CCNCC1 (stereo unspecified),inactive
14,CCN1C(=O)/C(=C/C=C2\N(CC)c3cc(S(=O)(=O)N(C)C)ccc3N2c2ccccc2)SC1=S,inactive
15,O=C(Nc1ccccc1)Nc1ccc(C(=O)N2CCOCC2)cc1,"inconclusive [inhibitor, partial curve, poor fit]"
16,CC(=O)NC(CC(=O)OCC(=O)c1ccc(NC(=O)CC(C)C)cc1)c1ccccc1 (stereo unspecified),"inconclusive [inhibitor, partial curve, poor fit]"
17,CC1CCN(S(=O)(=O)c2ccc3c(c2)CCC(=O)N3CC(=O)Nc2cccc(C#N)c2)CC1,active: 14.1 µM
18,O=C(/C=C\Nc1ccccn1)c1ccc(Cl)cc1,"inconclusive [inhibitor, partial curve, poor fit]"
19,Cc1ccc2nc(-c3ccc(N4C(=NC(=O)CCC(=O)O)SC5CS(=O)(=O)CC54)cc3)sc2c1 (stereo unspecified),"inconclusive [inhibitor, single point]"
20,Cc1nc(NC(=O)c2ccccc2)sc1-c1csc(Nc2ccc(C(=O)O)cc2)n1,"inconclusive [inhibitor, single point]"
21,O=C(CNC(=O)/C=C/c1ccco1)N=Nc1c(O)[nH]c2ccccc12,"inconclusive [inhibitor, single point]"
22,c1ccc(-c2ccc(C3=Nn4c(Cn5nnc6ccccc65)nnc4SC3)cc2)cc1,inactive

row,SMILES,Potency
1,Cc1cccc(C)c1OCC(O)CNS(=O)(=O)c1ccccc1C(=O)N1CCCCC1 (stereo unspecified),inactive
2,CCCCN1C=CC(=C2C(=O)c3ccccc3C2=O)C=C1,"inconclusive [inhibitor, partial curve]"
3,CC(C)Cc1nc2oc3c(N4CCN(CCO)CC4)ncnc3c2c2c1CCCC2,inactive
4,CCOc1ccc(CC(=O)NCC(c2cccs2)S(=O)(=O)c2ccc(F)c(C)c2)cc1 (stereo unspecified),inactive
5,O=C(COC(=O)c1cccc(S(=O)(=O)N2CCN(c3ccccc3)CC2)c1)NCc1ccco1,"inconclusive [inhibitor, partial curve, poor fit]"
6,Cc1ccc(C(=O)O/N=C(\N)c2ccccc2)c(Cl)c1,"inconclusive [inhibitor, single point]"
7,COc1ccc(C(=O)O/N=C(\N)c2ccccc2)cc1,"inconclusive [inhibitor, partial curve, poor fit]"
8,N/C(=N\OC(=O)c1ccc([N+](=O)[O-])cc1Cl)c1ccccn1,"inconclusive [inhibitor, partial curve, poor fit]"
9,CSc1nc(SCC(=O)O)c2sc3nc(-c4ccccc4)c4c(c3c2n1)CCC4,"inconclusive [inhibitor, partial curve, poor fit]"
10,CS(=O)(=O)NCCSCc1ccco1,"inconclusive [inhibitor, partial curve, poor fit]"
11,O=C(N/N=C/c1ccc(Cl)cc1Cl)c1ccncc1,inactive
12,O=C(O)CCS(=O)(=O)c1nc(-c2cccs2)cc(C(F)(F)F)n1,inactive
13,Cc1ccccc1N(C(=O)c1csnn1)C(C(=O)NC1CCCCC1)c1ccncc1 (stereo unspecified),inactive
14,CCN(CC(=O)Nc1c(F)cccc1F)C(=O)c1ccc2ccccc2n1,inactive
15,O=C(Nc1ccc2c(c1)OCO2)N1CCN(Cc2ccco2)CC1,"inconclusive [inhibitor, partial curve, poor fit]"
16,COc1cc(/C=C2/SC(=S)N(c3c(C)n(C)n(-c4ccccc4)c3=O)C2=O)ccc1O,"inconclusive [inhibitor, partial curve, poor fit]"
17,O=C(CSc1nc2ccccc2c(=O)[nH]1)Nc1nc(-c2ccc(Br)cc2)cs1,"inconclusive [inhibitor, partial curve]"
18,O=C(CSc1nc(-c2cccs2)nc2cc(=O)[nH]n12)Nc1ccccc1Cl,"inconclusive [inhibitor, partial curve, poor fit]"
19,O=C(Nc1nc(-c2ccccn2)cs1)c1cc(Cl)ccc1[N+](=O)[O-],inactive
20,O=C(O)CCCN1C(=O)/C(=C/c2ccc(-c3nc4ccccc4s3)o2)SC1=S,"inconclusive [inhibitor, full curve, poor fit]"
21,COc1cccc(C(=O)c2cc3ccc(O)cc3oc2=O)c1,"inconclusive [inhibitor, partial curve, poor fit]"
22,COCCCn1c(O)c(/C=C2\N=C(C#N)C(=Nc3ccc(C)cc3)O2)sc1=S,"inconclusive [inhibitor, partial curve, poor fit]"

row,SMILES,Potency
1,Cc1ccc(N2CCN(C(=S)Nc3ccccc3)CC2)cc1,"inconclusive [inhibitor, single point]"
2,Cc1oc(-c2nc3ccccc3n2C)cc1C(=O)c1ccccc1,"inconclusive [inhibitor, single point]"
3,O=C(c1ccc(=O)oc1)N1CCOCC1,"inconclusive [inhibitor, partial curve, poor fit]"
4,CCOC(=O)C1(Cc2cccc(OC)c2)CCCN(Cc2cc(OC)c(O)c(OC)c2)C1 (stereo unspecified),inactive
5,CN(C)S(=O)(=O)c1cccc(NC(=S)Nc2ccc(Cl)cc2Cl)c1,"inconclusive [inhibitor, partial curve, poor fit]"
6,O=C(CCO)c1ccc(O)cc1,"inconclusive [inhibitor, full curve, poor fit]"
7,O=C(Nc1cccc(S(=O)(=O)NC2=NCCC2)c1)c1cc(-c2ccco2)nc2ccccc12,"inconclusive [inhibitor, partial curve, poor fit]"
8,C/C(N)=C(/C#N)C(=O)CSc1nnc(Nc2c(C)cccc2C)s1,"inconclusive [inhibitor, partial curve, poor fit]"
9,O=C(Cc1ccccc1Cl)N/N=C/c1cccnc1,inactive
10,O=c1c(O)c(-c2cc(O)c(O)c(O)c2)oc2cc(O)cc(O)c12,"inconclusive [inhibitor, full curve, poor fit]"
11,CCOC(=O)c1cnc(-n2nc(C)cc2C)nc1NC1CCCCC1,inactive
12,COCCNC(=O)Nc1ccc2nc(-c3ccco3)c(-c3ccco3)nc2c1,"inconclusive [inhibitor, partial curve, poor fit]"
13,O=c1c(O)cccc2cc(O)c(O)c(O)c12,active: 0.794 µM
14,N=C1/C(=C/c2ccc(-c3cccc(C(=O)O)c3)o2)C(=O)N=C2SC(CC(=O)N3CCOCC3)=NN12,"inconclusive [inhibitor, partial curve]"
15,Nn1c(SCC(=O)Nc2cc(C(F)(F)F)ccc2Cl)nncc1=O,"inconclusive [inhibitor, single point]"
16,C=CCNc1nc(C(=O)OCC(=O)c2cccc(Br)c2)cs1,"inconclusive [inhibitor, partial curve, poor fit]"
17,COc1ccc(OC)c(N2C(=O)[C@@H]3C(c4ccccc4Cl)=NO[C@@H]3C2=O)c1,active: 12.6 µM
18,O=S(=O)(NCCc1cn2ccccc2n1)c1cccs1,inactive
19,Cc1nonc1C(=O)N/N=C/c1cccc(O)c1,"inconclusive [inhibitor, single point]"
20,O=C(NC(=S)Nc1ccccc1)c1cccs1,"inconclusive [inhibitor, partial curve, poor fit]"
21,COc1cc(C(=O)OCc2ccc(C)cc2)cc(NC(=O)c2cccs2)c1OC,inactive
22,O=c1cc(CN2CCN(Cc3ccccc3)CC2)c2ccc(O)c(O)c2o1,"inconclusive [inhibitor, partial curve, poor fit]"
